Reference: a collection of fitness landscapes (doi:10.1016/j.celrep.2020.107928)
The full ranking holds about 81,000 sequences; the median of “one-hybrid fitness for binding parS DNA” is about -0.17, and the highest 2% start at about 0.51. This is one part of the list.

B1: Caulobacter ParB omega fusion; a variant is named by its letters at X, in order, B8GW30 (parent)
chain: MESVVVGEPGMSEGRRGLGRGLSALLGEVDAAPAQAPGEQLGGSREAPIEILQRNPDQPRRTFREEDLEDLSNSIREKGVLQPILVRPSPDTAGEYQIVAGERAWRAAQRAGLKTVPIMVRELDDLAVLEIGIIENVQRADLNVLEEALSYKVLMEKFERTQENIAQTIGKSXSHVANXMRLLXLPDEVQSYLVSGELTAXHARAIAAAADPVALAKQIIEGGLSVRETEALARKAPNLSAGKSKGGRPPRVKDTDTQALESDLSSVLGLDVSIDHRGSTGTLTITYATLEQLDDLCNRLTRGI

Variants of: B1
Assay: one-hybrid fitness for binding parS DNA (scaled: cognate 1, non-cognate 0); higher = stronger binding
Conditions: with parS DNA site
Procedure, shortened: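 Caulobacter ParB libraries with four specificity codons randomised were screened by bacterial one-hybrid selection in the E. coli USO strain, using a HIS3 reporter whose site lies 19 bp from the promoter. Selection ran for 48 hours at 37°C on M9 lacking histidine, with 0.1 mM IPTG and 5 mM 3-AT. Plasmids were Illumina-sequenced before and after selection, three replicate libraries were pooled, and variants with under 10 reads were dropped. Fitness is the log change in each variant's read ratio to wild type, rescaled against the cognate and non-cognate sites.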

one-hybrid fitness for binding parS DNA, 0.244:
RYKW

one-hybrid fitness for binding parS DNA, ≤ 0.2:
AQYW
LIKM
ISDV
DAHS
NFCG
KPSC
PFFL
PAGM
CAGM
PIKY
MIRS
RWKI
HHIC
YDST
REVP
TWAC
MPFI
DILM
KTFK
QLHE
YGGF
ENYR
WRTC
CAAS
AALW
PSCT
LTSF
MSDG
DQRD
RCSV
FING
TCDE
VKNW
RHWQ
NRNA
WNDT
PSWR
AGDI
NSDG
MEAS
AMAT
SPDP
MVAP
VHAR
KCNQ
QSNQ
KLKL
LGCG
RKKQ
WHST
AFDG
HVLP
GAWG
TGTA
YRYG
PELV
CLFG
DHDG
AQIC
DRVT
TPLY
LTNR
HAKS
FMRL
CVRN
STKY
QFNG
SVVP
LYVS
APWV
RAIP
CDKG
EGTL
MYAT
HADD
KADS
ARFR
LKQV
LLGV
QVFT
LNWG
AQQT
NDPH
NSVK
LDVC
LHVC
RNNH
GCAT
QHTW
PREE
WPHC
QKLP
GRQV
QHSC
LHMH
WAWC
CNSN
YCLS
QESN
QVDM
GQTQ
HINI
LAEC
NDFT
PPGL
CRWS
LEYW
QDYF
NGNT
STNV
KKNS
VDGR
TAQV
HSID
CRKM
THEM
KSHR
LTYC
QTVQ
SRNV
YVPE
EMTK
CCTR
QCKC
QKAY
TPYL
NTEP
GQTV
NRHV
METL
IVLS
QPCS
QRFR
WIAN
HQYS
MQAN
KYWR
LTYW
RCPR
LEEK
NLIR
IAAE
PLCI
EMDS
QKMY
VHYF
AQAC
AADN
GYHS
HRET
QTQY
MTFR
ARKK
LDSN
WSQG
NMPS
IQTC
QKDM
DHMC
MRPF
TKIC
HAPF
MWRH
TQLG
WQGS
RPVS
ITMR
QYVY
TKAM
RIMK
PRPI
TCYS
DVRT
MSFP
AVDW
CVNP
QDSG
DVST
PPER
LVMS
PAWA
KLAF
IYMF
QDTF
GTHL
LCAH
QPWH
PRQS
TPSP
ANPR
PDLQ
LSRM
QWQV
IKRQ
FGSA
TVTQ
YSYC
QMEC
FTLM
SNQY
AFRA
RAFD
CALR
QGRK
PNSN
AHNM
SMLF
QTSE
TMVC
KQQR
VLIV
SVFG
QCID
VLER
TSVY
LYMF
ANRR
SKPE
SECF
VRFL
YMSR
HELT
TFKL
TSCT
EHYS
PSLG
SRIW
RLTD
SGFM
YSRG
HMVT
RNVV
AETF
ITNV
HPRW
TGDR
LRSY
THIP
MEYY
IHER
GVLS
LRRS
VATQ
FFGC
RAWK
PSMD
PFRT
HHGG
ARDM
IICT
VMIR
SMSR
YVSA
VHVT
CSFG
VTMS
RMSV
VQSI
FNCR
ANTG
NGSA
GDDA
QYWG
QWHC
PFAQ
QVCQ
YHTC
PFHM
SGHA
REEE
KLKV
QRYP
MKAS
VSEN
VCVL
MQSI
PAKQ
RFGE
KARY
HMVR
PVSG
PASE
TIIS
ATKK
QMNR
VLVT
RCDD
QKKA
RFVP
YAMK
PQAM
EFSG
RYKH
SFTN
MYFT
MSPV
RFQW
VKKW

one-hybrid fitness for binding parS DNA, 0.3:
RREN

one-hybrid fitness for binding parS DNA, 0.965:
RCVC

one-hybrid fitness for binding parS DNA, 0.872:
RYNS

one-hybrid fitness for binding parS DNA, 0.99:
RQQG

one-hybrid fitness for binding parS DNA, 1.01:
RCIS

one-hybrid fitness for binding parS DNA, 0.819:
RQKT

one-hybrid fitness for binding parS DNA, 0.984:
RQTS
